Variants at the floor of the assay are shown more often than the library holds them.
B1: TPR 5TU (parent)
chain: GGAUCUUCUCGAUCUAACAAAAAAGACAAAUCUGCCACAAAGCUUGAGAGCAUCUUCGGAUGCAGAGGCGGCAGCCUUCGGUGGCGCGAUAGCGCCAACGUUCUCAACUAUGACACGCAAAACGCGUGCUCCGUUGAAUGGAGUUUAUCAUG

Variants of: B1
Test: polymerase ribozyme fitness, log enrichment relative to wild type (log ratio); higher = more active; in vitro selection for triplet polymerase activity
Procedure, shortened: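 Fitness is a logarithmic measure of how a genotype enriched relative to the wild type, with replicate averages weighted by inverse variance. The logarithm uses base 2, and enrichment came from Illumina sequencing of input and output libraries. Those libraries were PCR-built, transcribed mutants of each subunit of a heterodimeric triplet polymerase ribozyme, passed through one triplicate in vitro selection round that included frozen incubation at −7 °C, gel excision of extended constructs and streptavidin-bead capture. Genotypes were kept only if they had ≥10 input reads and ≥1 read per output.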
In the case of GGAUCUUCUCGAUCUAACAAAAAAGACAAAUCUGCCACAAAGCUUGAGAGCAUCUUCGGAUGCAGAGGCGGCAGCCUUCGGUGCCGCGAUAGCGCCAACGUUCUCAACUAUGACCUGCAAAACGCGUGCUCCGUUGAAUGGAGUUUAUCAUG, the “polymerase ribozyme fitness (log ratio)” value is reported as -3.98. With GGAUCUUCUCGAUCUAACAAAAAAGACAAAUCUGCCACAAAGCUUGAGAGCAUCUUCGGAUGCAGAGGCGGCAGCCUUCGGUGCCGCGAUAGCGCCAACGUUCUCAACUAUGACACGCAAUCCGCGUGCUCCGUUGAAUGGAGUUUAUCAUG the “polymerase ribozyme fitness (log ratio)” value was -1.63. With GGAUCUUCUCGAUCUAACAAAAAAGACAAAUCUGCCACAAAGCUUGAGAGCAUCUUCGGAUGCAGAGGCGGCAGCCUUCGGUGCCGCGAUAGCGCCAACGUUCUCAACUAUGACACGCAAAACGCAUGCUACGUUGAAUGGAGUGUAUCAUG the “polymerase ribozyme fitness (log ratio)” value was at most -4.2. In the case of GGAUCUUCUCGAUCUAACAAAAAAGACAAAUCUGCCACAAAGCUUGAGAGCAUCUUCGGAUGCAGAGGCGGCAGCCUUCGGUGCCGCGAUAGCGCCAACGUUCUCAACUAGGAGACGCAAAACGCGUGCUCCGUUGAUUGGAGUUUAUCAUG, the “polymerase ribozyme fitness (log ratio)” value is reported as at most -4.2. For GGAUCUUCUCGAUCUAACAAAAAAGACAAAUCUGCCACAAAGCUUGAGAGCAUCUUCGGAUGCAGAGGCGGCAGCCUUCGGUGUCGCGUUAGCGCUAAGGUUCUCGACUAUGACACGCAAUACGCGUGCUCCGUUGCAUGGAGUUUAUCAUG, the “polymerase ribozyme fitness (log ratio)” value was at most -4.2. With GGAUCUUCUCGAUCUAACAAAAAAGACAAAUCUGCCACAAAGCUUGAGAGCAUCUUCGGAUGCAGAGGCGGCAGCCUUCGGUGUCGCGAUCGCGCCAACGUUCUCAACUAUGACAAGCAAAACGCGUGCUCCGUUGAAUGGAGUUUAUCAUG the “polymerase ribozyme fitness (log ratio)” value was at most -4.2. With GGAUCUUCUCGAUCUAACAAAAAAGACAAAUCUGCCACAAAGCUUGAGAGCAUCUUCGGAUGCAGAGGCGGCAGCCUUCGGUGUCGCGAUAGCGCCAACGUUCUCCACUAUGACACGCAAAACGCGUGCUCCGUUGAAUGGAGUUUAUCAUG the “polymerase ribozyme fitness (log ratio)” value was -2.1. In the case of GGAUCUUCUCGAUCUAACAAAAAAGACAAAUCUGCCACAAAGCUUGAGAGCAUCUUCGGAUGCAGAGGCGGCAGCCUUCGGUGUCGCGAUAGCGCCAACGUUCUCUACUAUGACACGCAAUACGCGUGCUCCGUUGAAUGGAGUUUAUGAUA, the “polymerase ribozyme fitness (log ratio)” value is reported as at most -4.2. In the case of GGAUCUUCUCGAUCUAACAAAAAAGACAAAUCUGCCACAAAGCUUGAGAGCAUCUUCGGAUGCAGAGGCGGCAGCCUUCGGUGUCGCGAUAGCGCCAACGUUCUCAACUCUGACACGCAAAACGCAUGCUCCGUUGAAUGAAGUUUAUCAUG, the “polymerase ribozyme fitness (log ratio)” value is reported as at most -4.2. For GGAUCUUCUCGAUCUAACAAAAAAGACAAAUCUGCCACAAAGCUUGAGAGCAUCUUCGGAUGCAGAGGCGGCAGCCUUCGGUGUCGCGAUAGCGCCAACGUUCUCAACUAUGACUCGCAAAACGCGUGCUCCGUUGAAUGGAGUUUAUCAUG, the “polymerase ribozyme fitness (log ratio)” value was -3.4. In the case of GGAUCUUCUCGAUCUAACAAAAAAGACAAAUCUGCCACAAAGCUUGAGAGCAUCUUCGGAUGCAGAGGCGGCAGCCUUCGGUGUCGCGAUAGCGCCAACGUUCUCAACUAUGACACGCAAAACGCGUGCUCCGUUGCAUGAAGUUUAUCAUG, the “polymerase ribozyme fitness (log ratio)” value is reported as at most -4.2. With GGAUCUUCUCGAUCUAACAAAAAAGACAAAUCUGCCACAAAGCUUGAGAGCAUCUUCGGAUGCAGAGGCGGCAGCCUUCGGUGUGGCGAUAGCGCCAACGUUCUCAACUAUGACACGCAAAACUCGUGCUCCGUUGAAUGGAGUUUACCAUG the “polymerase ribozyme fitness (log ratio)” value was at most -4.2. With GGAUCUUCUCGAUCUAACAAAAAAGACAAAUCUGCCACAAAGCUUGAGAGCAUCUUCGGAUGCAGAGGCGGCAGCCUUCGGUGUCGGGAUAGCGCCAACGUUCUCCACUAUGACACGCAAAACGCGUGCUCCGUUGAAUUGAGUUUAUCAUG the “polymerase ribozyme fitness (log ratio)” value was at most -4.2. In the case of GGAUCUUCUCGAUCUAACAAAAAAGACAAAUCUGCCACAAAGCUUGAGAGCAUCUUCGGAUGCAGAGGCGGCAGCCUUCGGUGUCGCGAUAGCGUCAACGUUCUCAACUAUGACACGCAAAACGCGUGCUCCGUUGAAUGGAGUUUAUCAUG, the “polymerase ribozyme fitness (log ratio)” value is reported as -1.23. With GGAUCUUCUCGAUCUAACAAAAAAGACAAAUCUGCCACAAAGCUUGAGAGCAUCUUCGGAUGCAGAGGCGGCAGCCUUCGGUGUCGCGAUAGCGCGAACGUUCUCAACUAUGACACGCAGAACGCGUGCUCCGUUGAACGGAGUUUAUCAUG the “polymerase ribozyme fitness (log ratio)” value was at most -4.2. For GGAUCUUCUCGAUCUAACAAAAAAGACAAAUCUGCCACAAAGCUUGAGAGCAUCUUCGGAUGCAGAGGCGGCAGCCUUCGGUGUCGCGAUAGCGCUAACAUUCUCAGCUAUGACACGCAAAACGCGUGCUCCGUUGAAUGGAGUUUAUCAUG, the “polymerase ribozyme fitness (log ratio)” value was at most -4.2. In the case of GGAUCUUCUCGAUCUAACAAAAAAGACAAAUCUGCCACAAAGCUUGAGAGCAUCUUCGGAUGCAGAGGCGGCAGCCUUCGGUGUCGCGAUAGCGCCAAGGUUCUCAACUAUGACACGCAAAACGCGUGCUCCGUUGAAUGGAGUUUAACAUG, the “polymerase ribozyme fitness (log ratio)” value is reported as at most -4.2. With GGAUCUUCUCGAUCUAACAAAAAAGACAAAUCUGCCACAAAGCUUGAGAGCAUCUUCGGAUGCAGAGGCGGCAGCCUUCGGUGUCGCGAUAGCGCCAACGUUCUCAACUAUGAGGCGCAAAACGCGUGCUCCGUUGAAUGGAGUUUAUCAUG the “polymerase ribozyme fitness (log ratio)” value was at most -4.2. In the case of GGAUCUUCUCGAUCUAACAAAAAAGACAAAUCUGCCACAAAGCUUGAGAGCAUCUUCGGAUGCAGAGGCGGCAGCCUUCGGUGUCGCGAUAGCGCCAACGUUCUCAACUAUGACACGCAAAACGCGUGAUCCGUUGAAUGGAGUUUAUCAUG, the “polymerase ribozyme fitness (log ratio)” value is reported as at most -4.2.

From the RNAGym collection of RNA variant scans (doi:10.1073/pnas.2313332121)
